Laboratory results: patent publication US20230099801A1, “RESTORATION OF T CELL ACTIVITY VIA THE CD39/CD73 AXIS” (INNATE PHARMA, priority 2017, published 2023)

How the values were obtained:
[1] = molecular target: T1, CD39 mutant 5 (Homo sapiens, UniProt P49961, E143A/N99A/Q96A/R147E); experiment: Epitope mapping by flow cytometry on Hek-293T cells expressing CD39 mutant 5; type: binding; conditions: substitutions Q96A
T1 construct: expressed in transfected cells; host or cells: HEK-293T cells
T1 sequence (P49961 1-510 Q96A/N99A/E143A/R147E): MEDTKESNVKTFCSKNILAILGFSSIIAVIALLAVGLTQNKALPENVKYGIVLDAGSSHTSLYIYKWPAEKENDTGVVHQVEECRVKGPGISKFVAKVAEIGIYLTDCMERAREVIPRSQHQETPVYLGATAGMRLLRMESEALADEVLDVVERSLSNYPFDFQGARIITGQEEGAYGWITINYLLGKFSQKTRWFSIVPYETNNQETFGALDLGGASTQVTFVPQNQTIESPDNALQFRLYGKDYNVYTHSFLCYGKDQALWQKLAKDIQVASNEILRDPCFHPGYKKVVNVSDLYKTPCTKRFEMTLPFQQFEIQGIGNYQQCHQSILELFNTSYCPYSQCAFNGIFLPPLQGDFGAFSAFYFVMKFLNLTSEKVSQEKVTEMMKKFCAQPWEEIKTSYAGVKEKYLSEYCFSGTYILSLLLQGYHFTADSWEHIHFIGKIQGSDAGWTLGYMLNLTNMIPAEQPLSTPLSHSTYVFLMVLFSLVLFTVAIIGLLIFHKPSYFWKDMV
Method: (§1) CD39 mutants were generated by PCR. The sequences amplified were run on agarose gel and purified using the Macherey Nagel PCR Clean-Up Gel Extraction kit (reference 740609). The purified PCR products generated for each mutant were then ligated into an expression vector, with the ClonTech InFusion system. The vectors containing the mutated sequences were prepared as Miniprep and sequenced. After sequencing, the vectors containing the mutated sequences were prepared as Midiprep using the Promega PureYield™ Plasmid Midiprep System. HEK293T cells were grown in DMEM medium (Invitrogen), transfected with vectors using Invitrogen's Lipofectamine 2000 and incubated at 37° C. in a CO2 incubator for 48 hours prior to testing for transgene expression.
(§2) In order to define the epitopes of anti-CD39 antibodies, we designed CD39 mutants defined by substitutions of amino acids exposed at the molecular surface over the surface of CD39.
(§3) Mutant 5 contains amino acid substitutions at residues Q96, N99, E143 and R147.
(§4) Mutants were transfected in Hek-293T cells, as shown in the table 1, using numbering of SEQ ID NO: 2. […] Mutant 19 includes substitutions at residues R138, M139 and E142.
Mutants were transfected in Hek-293T cells, as shown in the table 1, using numbering of SEQ ID NO: 2. […]

[2] = molecular target: T2, CD39 mutant 19 (Homo sapiens, UniProt P49961, E142K/M139A/R138A); experiment: Epitope mapping by flow cytometry on Hek-293T cells expressing CD39 mutant 19; type: binding; conditions: substitutions R138A
T2 construct: expressed in transfected cells; host or cells: HEK-293T cells
T2 sequence (P49961 1-510 R138A/M139A/E142K): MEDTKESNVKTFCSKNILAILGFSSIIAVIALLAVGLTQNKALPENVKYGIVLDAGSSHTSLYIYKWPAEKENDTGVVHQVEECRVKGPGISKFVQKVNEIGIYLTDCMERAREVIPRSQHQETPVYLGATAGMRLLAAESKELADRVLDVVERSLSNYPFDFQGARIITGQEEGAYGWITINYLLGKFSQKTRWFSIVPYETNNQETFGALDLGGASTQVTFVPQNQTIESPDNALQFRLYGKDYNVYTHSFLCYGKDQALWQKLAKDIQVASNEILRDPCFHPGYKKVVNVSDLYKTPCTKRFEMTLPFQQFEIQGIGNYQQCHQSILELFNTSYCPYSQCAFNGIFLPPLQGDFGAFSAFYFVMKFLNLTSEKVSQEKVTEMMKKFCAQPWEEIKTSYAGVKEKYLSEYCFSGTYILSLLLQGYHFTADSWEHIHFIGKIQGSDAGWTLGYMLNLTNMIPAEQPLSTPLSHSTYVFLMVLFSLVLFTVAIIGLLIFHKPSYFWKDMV
Method: as §1, §2, §4
(§5) Mutants were transfected in Hek-293T cells, as shown in the table 1, using numbering of SEQ ID NO: 2. Dose-ranges of test antibodies (10-2.5-0.625-0.1563-0.0391-0.0098-0.0024-0.0006 μg/ml) are tested on the 20 generated mutants by flow cytometry.

[3] = molecular target: T3, CD39 mutant 15 (Homo sapiens, UniProt P49961, D107A/E100A/K87A); experiment: Epitope mapping by flow cytometry on Hek-293T cells expressing CD39 mutant 15; type: binding; conditions: substitutions K87A
T3 construct: expressed in transfected cells; host or cells: HEK-293T cells
T3 sequence (P49961 1-510 K87A/E100A/D107A): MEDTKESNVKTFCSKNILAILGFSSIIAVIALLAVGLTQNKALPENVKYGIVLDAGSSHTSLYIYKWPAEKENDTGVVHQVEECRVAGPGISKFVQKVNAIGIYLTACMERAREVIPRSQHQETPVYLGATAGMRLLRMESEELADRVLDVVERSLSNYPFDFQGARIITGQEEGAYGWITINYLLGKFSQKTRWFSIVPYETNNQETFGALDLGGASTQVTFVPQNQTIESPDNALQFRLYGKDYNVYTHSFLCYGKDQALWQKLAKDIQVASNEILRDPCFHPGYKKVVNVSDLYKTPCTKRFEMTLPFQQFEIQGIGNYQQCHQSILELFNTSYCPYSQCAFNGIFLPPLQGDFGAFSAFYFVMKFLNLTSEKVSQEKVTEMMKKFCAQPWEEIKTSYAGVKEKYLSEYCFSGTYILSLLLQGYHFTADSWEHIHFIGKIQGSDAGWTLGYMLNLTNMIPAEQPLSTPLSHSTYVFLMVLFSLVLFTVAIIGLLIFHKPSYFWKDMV
Method: as §1, with “expression. The targeted amino acid mutations in the table 1 below are shown using numbering of SEQ ID NO: 2.” for “expression.”
as §2, §5

[4] = system: other CD39 mutants of Table 1; experiment: Epitope mapping by flow cytometry on the other CD39 mutants of Table 1; type: binding, human
Method: as §1, with “expression. The targeted amino acid mutations in the table 1 below are shown using numbering of SEQ ID NO: 2.” for “expression.”
as §2, §3, §5

B1: I-395: anti-CD39 antibody, VH SEQ ID NO: 14, VL SEQ ID NO: 15 (antibody, listed as Mus musculus, V domains shown)
VH: EVQLQQSGPELVKPGASVRMSCKASGYTFTDYNMHWVKKNHGKGLEWIGYINPNNGGTTYNQKFKGKATLTVNTSSKTAYMELRSLTSEDSAVYYCTRGGTRFASWGQGTLVTVSA
VL: NIVLTQSPASLAVSLGQRATISCRASESVDNYGISFMYWFQQKPGQPPKLLIYAASTQGSGVPARFSGSGSGTDFSLNIHPMEEDDTAMYFCQQSKEVPFTFGSGTKLEIK
binding to cells expressing mutant 5 of CD39 [1]: loss of binding
binding to cells expressing mutant 19 of CD39 [2]: loss of binding

B2: I-396: anti-CD39 antibody, VH SEQ ID NO: 22, VL SEQ ID NO: 23 (antibody, listed as Mus musculus, V domains shown)
VH: EVQLQQSGAELVKPGASVKLSCIVSGFNIKDTYINWVKQRPEQGLEWIGRIDPANGNTKYDPKFQGKATMTSDTSSNTAYLHLSSLTSDDSAVYYCARWGYDDEEADYFDSWGQGTTLTVSS
VL: DIVLTQSPASLAVSLGQRATISCRASESVDNYGISFMNWFQQKPGQPPKLLIYAASNQGSGVPARFSGSGSGTDFSLNILPMEEVDAAMYFCHQSKEVPWTFGGGTKLEIK
binding to cells expressing mutant 15 of CD39 [3]: loss of binding
binding to any other mutant of the 20 CD39 mutants [4]: without loss of binding
